Measured values as given in the supplement of paper PMC12217912.
This is one part of the list. The full chains were built here from the parent and the listed change. Inactive controls read about 0.05.

B1: TEV protease; numbered along this chain (parent)
chain: MGESLFKGPRDYNPISSSICHLTNESDGHTTSLYGIGFGPFIITNKHLFRRNNGTLVVQSLHGVFKVKDTTTLQQHLVDGRDMIIIRMPKDFPPFPQKLKFREPQREERICLVTTNFQTKSMSSMVSDTSCTFPSGDGIFWKHWIQTKDGQCGSPLVSTRDGFIVGIHSASNFTNTNNYFTSVPKNFMELLTNQEAQQWVSGWRLNADSVLWGGHKVFMVKPEEPFQPVKEATQL

Variants of: B1
Assay: raw area under fraction-flipped curve 0-4 h after induction (AUC4h, not background-subtracted), DNA-recorder readout of cleavage of the substrate (dimensionless); higher = more cleavage of the substrate by the protease variant
Details: temperature: 34 °C; time window: 0-4 h after rhamnose induction
Protocol: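 In vivo DNA recorder in E. coli TOP10(DE3) ΔrhaA at 34 °C. Each TEVp single-site mutant (parent TEVp 0) is paired with a single-site variant of the 7-mer TEVs (canonical ENLYFQ|S). The substrate sits between flexible linkers in a Bxb1-sfGFP-TEVs-SsrA fusion, so cleavage stabilises Bxb1 and speeds flipping of a recombination array, read by NGS. The value is the raw area under the fraction-flipped curve over 0-4 h after rhamnose induction (AUC4h), with ≥20 reads per time point. It is not background-subtracted; inactive controls average about 0.047.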
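Note: Bxb1 expression induced with 0.2% (w/v) L-rhamnose at OD600 near 0.5, cultures sampled hourly, flipped fraction per protease–substrate barcode pair counted by paired-end Illumina sequencing.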

MGESLFKGPRDYNPISSSICHLTNESDGHTTSLYGIGFGPFIITNKHLFRRNNGTLVVQSLHGVFKVKDTTTLQQHLVDGRDMIIIRMPKDFPPFPQKLKFREPQREERICLVTTNFQTKSMSSMVSDTSCTFPSGDGIFWKHWIQTKDGQCGSPLVSTRDGFIVGIHRASNFTNTNNYFTSVPKNFMELLTNQEAQQWVSGWRLNADSVLWGGHKVFMVKPEEPFQPVKEATQL [S169R]
area with substrate EALYFQS: 0.0386
area with substrate ECLYFQS: 0.0622
area with substrate EDLYFQS: 0.0507
area with substrate EHLYFQS: 0.0428
area with substrate EILYFQS: 0.0541
area with substrate EKLYFQS: 0.06
area with substrate ELLYFQS: 0.069
area with substrate EMLYFQS: 0.0506
area with substrate EPLYFQS: 0.0721
area with substrate ERLYFQS: 0.0402
area with substrate ESLYFQS: 0.0471
area with substrate EVLYFQS: 0.0636
area with substrate EWLYFQS: 0.058

MGESLFKGPRDYNPISSSICHLTNESDGHTTSLYGIGFGPFIITNKHLFRRNNGTLVVQSLHGVFKVKDTTTLQQHLVDGRDMIIIRMPKDFPPFPQKLKFREPQREERICLVTTNFQTKSMSSMVSDTSCTFPSGDGIFWKHWIQTKDGQCGSPLVSTRDGFIVGIHSASNITNTNNYFTSVPKNFMELLTNQEAQQWVSGWRLNADSVLWGGHKVFMVKPEEPFQPVKEATQL [F173I]
area with substrate EALYFQS: 0.109
area with substrate ECLYFQS: 0.097
area with substrate EDLYFQS: 0.131
area with substrate EELYFQS: 0.133
area with substrate EFLYFQS: 0.12
area with substrate EHLYFQS: 0.0957
area with substrate EILYFQS: 0.0977
area with substrate EKLYFQS: 0.0967
area with substrate ELLYFQS: 0.136
area with substrate EPLYFQS: 0.111
area with substrate EQLYFQS: 0.077
area with substrate ERLYFQS: 0.0856
area with substrate ESLYFQS: 0.114
area with substrate ETLYFQS: 0.104
area with substrate EVLYFQS: 0.115
area with substrate EWLYFQS: 0.138

MGESLFKGPRDYNPISSSICHLTNESDGHTTSLYGIGFGPFIITNKHLFRRNNGTLVVQSLHGVFKVKDTTTLQQHLVDGRDMIIIRMPKDFPPFPQKLKFREPQREERICLVTTNFQTKSMSSMVSDTSCTFPSGDGIFWKHWIQTKDGQCGSPLVSTRDGFIVGIHSASNSTNTNNYFTSVPKNFMELLTNQEAQQWVSGWRLNADSVLWGGHKVFMVKPEEPFQPVKEATQL [F173S]
area with substrate EALYFQS: 0.0835
area with substrate EDLYFQS: 0.114
area with substrate EELYFQS: 0.088
area with substrate EFLYFQS: 0.111
area with substrate EGLYFQS: 0.0734
area with substrate EHLYFQS: 0.0741
area with substrate EILYFQS: 0.102
area with substrate ELLYFQS: 0.0665
area with substrate EMLYFQS: 0.0956
area with substrate ERLYFQS: 0.0853
area with substrate ESLYFQS: 0.0626
area with substrate ETLYFQS: 0.0827
area with substrate EVLYFQS: 0.0907
area with substrate EWLYFQS: 0.112
area with substrate EYLYFQS: 0.0584

MGESLFKGPRDYNPISSSICHLTNESDGHTTSLYGIGFGPFIITNKHLFRRNNGTLVVQSLHGVFKVKDTTTLQQHLVDGRDMIIIRMPKDFPPFPQKLKFREPQREERICLVTTNFQTKSMSSMVSDTSCTFPSGDGIFWKHWIQTKDGQCGSPLVSTRDGFIVGIHSASNFTMTNNYFTSVPKNFMELLTNQEAQQWVSGWRLNADSVLWGGHKVFMVKPEEPFQPVKEATQL [N175M]
area with substrate EALYFQS: 0.0578
area with substrate ECLYFQS: 0.133
area with substrate EFLYFQS: 0.0644
area with substrate EGLYFQS: 0.0756
area with substrate EILYFQS: 0.0781
area with substrate EKLYFQS: 0.0834
area with substrate ELLYFQS: 0.0793
area with substrate EMLYFQS: 0.0388
area with substrate EPLYFQS: 0.11
area with substrate EQLYFQS: 0.0953
area with substrate ERLYFQS: 0.0749
area with substrate ESLYFQS: 0.0804
area with substrate EVLYFQS: 0.0882
area with substrate EWLYFQS: 0.0932

MGESLFKGPRDYNPISSSICHLTNESDGHTTSLYGIGFGPFIITNKHLFRRNNGTLVVQSLHGVFKVKDTTTLQQHLVDGRDMIIIRMPKDFPPFPQKLKFREPQREERICLVTTNFQTKSMSSMVSDTSCTFPSGDGIFWKHWIQTKDGQCGSPLVSTRDGFIVGIHSASNFTTTNNYFTSVPKNFMELLTNQEAQQWVSGWRLNADSVLWGGHKVFMVKPEEPFQPVKEATQL [N175T]
area with substrate EALYFQS: 0.0649
area with substrate ECLYFQS: 0.0619
area with substrate EDLYFQS: 0.0594
area with substrate EKLYFQS: 0.0528
area with substrate EPLYFQS: 0.0645
area with substrate ERLYFQS: 0.087
area with substrate ESLYFQS: 0.0575
area with substrate EVLYFQS: 0.0595

MGESLFKGPRDYNPISSSICHLTNESDGHTTSLYGIGFGPFIITNKHLFRRNNGTLVVQSLHGVFKVKDTTTLQQHLVDGRDMIIIRMPKDFPPFPQKLKFREPQREERICLVTTNFQTKSMSSMVSDTSCTFPSGDGIFWKHWIQTKDGQCGSPLVSTRDGFIVGIHSASNFTNWNNYFTSVPKNFMELLTNQEAQQWVSGWRLNADSVLWGGHKVFMVKPEEPFQPVKEATQL [T176W]
area with substrate EALYFQS: 0.0796
area with substrate ECLYFQS: 0.0752
area with substrate EDLYFQS: 0.0703
area with substrate EELYFQS: 0.0548
area with substrate EFLYFQS: 0.0725
area with substrate EGLYFQS: 0.0458
area with substrate EILYFQS: 0.0466
area with substrate EQLYFQS: 0.0731
area with substrate ERLYFQS: 0.073
area with substrate ESLYFQS: 0.0602
area with substrate ETLYFQS: 0.0591
area with substrate EVLYFQS: 0.0552
area with substrate EYLYFQS: 0.0665

MGESLFKGPRDYNPISSSICHLTNESDGHTTSLYGIGFGPFIITNKHLFRRNNGTLVVQSLHGVFKVKDTTTLQQHLVDGRDMIIIRMPKDFPPFPQKLKFREPQREERICLVTTNFQTKSMSSMVSDTSCTFPSGDGIFWKHWIQTKDGQCGSPLVSTRDGFIVGIHSASNFTNTNNQFTSVPKNFMELLTNQEAQQWVSGWRLNADSVLWGGHKVFMVKPEEPFQPVKEATQL [Y179Q]
area with substrate EALYFQS: 0.056
area with substrate ECLYFQS: 0.0693
area with substrate EDLYFQS: 0.0525
area with substrate EELYFQS: 0.0453
area with substrate EFLYFQS: 0.0382
area with substrate EGLYFQS: 0.0447
area with substrate EHLYFQS: 0.0584
area with substrate EILYFQS: 0.057
area with substrate EKLYFQS: 0.0759
area with substrate ELLYFQS: 0.0643
area with substrate EMLYFQS: 0.0608
area with substrate EPLYFQS: 0.0921
area with substrate EQLYFQS: 0.0653
area with substrate ERLYFQS: 0.0541
area with substrate ESLYFQS: 0.0518
area with substrate ETLYFQS: 0.0534
area with substrate EVLYFQS: 0.0609
area with substrate EYLYFQS: 0.0595

MGESLFKGPRDYNPISSSICHLTNESDGHTTSLYGIGFGPFIITNKHLFRRNNGTLVVQSLHGVFKVKDTTTLQQHLVDGRDMIIIRMPKDFPPFPQKLKFREPQREERICLVTTNFQTKSMSSMVSDTSCTFPSGDGIFWKHWIQTKDGQCGSPLVSTRDGFIVGIHSASNFTNTNNTFTSVPKNFMELLTNQEAQQWVSGWRLNADSVLWGGHKVFMVKPEEPFQPVKEATQL [Y179T]
area with substrate EALYFQS: 0.05
area with substrate ECLYFQS: 0.0573
area with substrate EDLYFQS: 0.0767
area with substrate EFLYFQS: 0.0807
area with substrate EILYFQS: 0.0375
area with substrate EKLYFQS: 0.0484
area with substrate EMLYFQS: 0.0921
area with substrate EQLYFQS: 0.0661
area with substrate ERLYFQS: 0.0935
area with substrate ESLYFQS: 0.0692

MGESLFKGPRDYNPISSSICHLTNESDGHTTSLYGIGFGPFIITNKHLFRRNNGTLVVQSLHGVFKVKDTTTLQQHLVDGRDMIIIRMPKDFPPFPQKLKFREPQREERICLVTTNFQTKSMSSMVSDTSCTFPSGDGIFWKHWIQTKDGQCGSPLVSTRDGFIVGIHSASNFTNTNNYFTAVPKNFMELLTNQEAQQWVSGWRLNADSVLWGGHKVFMVKPEEPFQPVKEATQL [S182A]
area with substrate EALYFQS: 0.146
area with substrate ECLYFQS: 0.136
area with substrate EKLYFQS: 0.134
area with substrate ESLYFQS: 0.0992
area with substrate ETLYFQS: 0.151
